Enrichment data for twelve sequences are collected here from the supplement of paper PMC12230231.

± gives the standard deviation of the averaged measurements. Restriction of a single-cycle SIVsab GFP reporter by TRIM5α v1-loop variants in CRFK cells. Human variants: read share among cells still uninfected after two challenges over input, higher = gained restriction. Rhesus variants: share among infected cells over input, higher = lost restriction. Reporter dose not given per row. No active / inactive call per row; the paper calls a change when both replicates lie above its controls (mean + 2 SD of stop or wild-type variants, or the top frameshift score). Residues outside the varied loop are taken from Swiss-Prot. The paper reads the human single-substitution scores as noise; they and the rhesus combinations repeat poorly (rank correlation 0.3 to 0.4), indel scores repeat only for the top variants, rhesus substitutions well (0.9).

The data set concerns SIVsab (simian immunodeficiency virus of sabaeus monkeys), single-cycle GFP reporter, in CRFK cells. In words: enrichment among uninfected cells over input (fold); higher = stronger restriction. The following applies: library: human / rhesus combinations. How it is done: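 Pools of CRFK cells expressing variants of the TRIM5α v1 loop were challenged with the single-cycle reporter, sorted by GFP and sequenced; mean of two replicates.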
For the sequence “MASGILVNVKEEVTCPICLELLTQPLSLDCGHSFCQACLTANHKKSMLDKGESSCPVCRISYQPENIRPNRHVANIVEKLREVKLSPEGQKVDHCARHGEKLLLFCQEDGKVICWLCERSQEHRGHHTFLTEEVAREYQVKLQAALEMLRQKQQEAEELEADIREEKASWKTQIQYDKTNVLADFEQLRDILDWEESNELQNLEKEEEDILKSLTNSETEMVQQTQSLRELISDLEHRLQGSVMELLQGVDGVIKRTENVTLKKPETFPKNQRRVFRAPDLKGMLEVFRELTDVRRYWVDVTVAPNNISCAVISEDKRQVSSPKPQIIYQAPGTLFTFPSFVNFNYCTGILGSQSITSGKHYWEVDVSKKTAWILGVCAGFQPDAMCNIEKNENYQPKYGYWVIGLEEGVKCSAFQDSSFHTPSVPFIVPLSVIICPDRVGVFLDYEACTVSFFNITNHGFLIYKFSHCSFSQPVFPYLNPRKCGVPMTLCSPSS [human TRIM5α, 330-340 = QAPGTLFTFPSFV]”, the enrichment is 37.7 ± 15. For “MASGILVNVKEEVTCPICLELLTQPLSLDCGHSFCQACLTANHKKSMLDKGESSCPVCRISYQPENIRPNRHVANIVEKLREVKLSPEGQKVDHCARHGEKLLLFCQEDGKVICWLCERSQEHRGHHTFLTEEVAREYQVKLQAALEMLRQKQQEAEELEADIREEKASWKTQIQYDKTNVLADFEQLRDILDWEESNELQNLEKEEEDILKSLTNSETEMVQQTQSLRELISDLEHRLQGSVMELLQGVDGVIKRTENVTLKKPETFPKNQRRVFRAPDLKGMLEVFRELTDVRRYWVDVTVAPNNISCAVISEDKRQVSSPKPQIIYQAPGTLFTFPSLTNFNYCTGILGSQSITSGKHYWEVDVSKKTAWILGVCAGFQPDAMCNIEKNENYQPKYGYWVIGLEEGVKCSAFQDSSFHTPSVPFIVPLSVIICPDRVGVFLDYEACTVSFFNITNHGFLIYKFSHCSFSQPVFPYLNPRKCGVPMTLCSPSS [human TRIM5α, 330-340 = QAPGTLFTFPSLT]”, the enrichment worked out at 39.2 ± 11. The result for “MASGILVNVKEEVTCPICLELLTQPLSLDCGHSFCQACLTANHKKSMLDKGESSCPVCRISYQPENIRPNRHVANIVEKLREVKLSPEGQKVDHCARHGEKLLLFCQEDGKVICWLCERSQEHRGHHTFLTEEVAREYQVKLQAALEMLRQKQQEAEELEADIREEKASWKTQIQYDKTNVLADFEQLRDILDWEESNELQNLEKEEEDILKSLTNSETEMVQQTQSLRELISDLEHRLQGSVMELLQGVDGVIKRTENVTLKKPETFPKNQRRVFRAPDLKGMLEVFRELTDVRRYWVDVTVAPNNISCAVISEDKRQVSSPKPQIIYQAPGTLFTFPSLVNFNYCTGILGSQSITSGKHYWEVDVSKKTAWILGVCAGFQPDAMCNIEKNENYQPKYGYWVIGLEEGVKCSAFQDSSFHTPSVPFIVPLSVIICPDRVGVFLDYEACTVSFFNITNHGFLIYKFSHCSFSQPVFPYLNPRKCGVPMTLCSPSS [human TRIM5α, 330-340 = QAPGTLFTFPSLV]” reads 45.3 ± 26; that for “MASGILVNVKEEVTCPICLELLTQPLSLDCGHSFCQACLTANHKKSMLDKGESSCPVCRISYQPENIRPNRHVANIVEKLREVKLSPEGQKVDHCARHGEKLLLFCQEDGKVICWLCERSQEHRGHHTFLTEEVAREYQVKLQAALEMLRQKQQEAEELEADIREEKASWKTQIQYDKTNVLADFEQLRDILDWEESNELQNLEKEEEDILKSLTNSETEMVQQTQSLRELISDLEHRLQGSVMELLQGVDGVIKRTENVTLKKPETFPKNQRRVFRAPDLKGMLEVFRELTDVRRYWVDVTVAPNNISCAVISEDKRQVSSPKPQIIYQAPGTLFTFPTFTNFNYCTGILGSQSITSGKHYWEVDVSKKTAWILGVCAGFQPDAMCNIEKNENYQPKYGYWVIGLEEGVKCSAFQDSSFHTPSVPFIVPLSVIICPDRVGVFLDYEACTVSFFNITNHGFLIYKFSHCSFSQPVFPYLNPRKCGVPMTLCSPSS [human TRIM5α, 330-340 = QAPGTLFTFPTFT]”, 41.4 ± 16. The result for “MASGILVNVKEEVTCPICLELLTQPLSLDCGHSFCQACLTANHKKSMLDKGESSCPVCRISYQPENIRPNRHVANIVEKLREVKLSPEGQKVDHCARHGEKLLLFCQEDGKVICWLCERSQEHRGHHTFLTEEVAREYQVKLQAALEMLRQKQQEAEELEADIREEKASWKTQIQYDKTNVLADFEQLRDILDWEESNELQNLEKEEEDILKSLTNSETEMVQQTQSLRELISDLEHRLQGSVMELLQGVDGVIKRTENVTLKKPETFPKNQRRVFRAPDLKGMLEVFRELTDVRRYWVDVTVAPNNISCAVISEDKRQVSSPKPQIIYQAPGTLFTFPTFVNFNYCTGILGSQSITSGKHYWEVDVSKKTAWILGVCAGFQPDAMCNIEKNENYQPKYGYWVIGLEEGVKCSAFQDSSFHTPSVPFIVPLSVIICPDRVGVFLDYEACTVSFFNITNHGFLIYKFSHCSFSQPVFPYLNPRKCGVPMTLCSPSS [human TRIM5α, 330-340 = QAPGTLFTFPTFV]” reads 22.3 ± 4.5; that for “MASGILVNVKEEVTCPICLELLTQPLSLDCGHSFCQACLTANHKKSMLDKGESSCPVCRISYQPENIRPNRHVANIVEKLREVKLSPEGQKVDHCARHGEKLLLFCQEDGKVICWLCERSQEHRGHHTFLTEEVAREYQVKLQAALEMLRQKQQEAEELEADIREEKASWKTQIQYDKTNVLADFEQLRDILDWEESNELQNLEKEEEDILKSLTNSETEMVQQTQSLRELISDLEHRLQGSVMELLQGVDGVIKRTENVTLKKPETFPKNQRRVFRAPDLKGMLEVFRELTDVRRYWVDVTVAPNNISCAVISEDKRQVSSPKPQIIYQAPGTLFTFPTLTNFNYCTGILGSQSITSGKHYWEVDVSKKTAWILGVCAGFQPDAMCNIEKNENYQPKYGYWVIGLEEGVKCSAFQDSSFHTPSVPFIVPLSVIICPDRVGVFLDYEACTVSFFNITNHGFLIYKFSHCSFSQPVFPYLNPRKCGVPMTLCSPSS [human TRIM5α, 330-340 = QAPGTLFTFPTLT]”, 25.1 ± 11. The result for “MASGILVNVKEEVTCPICLELLTQPLSLDCGHSFCQACLTANHKKSMLDKGESSCPVCRISYQPENIRPNRHVANIVEKLREVKLSPEGQKVDHCARHGEKLLLFCQEDGKVICWLCERSQEHRGHHTFLTEEVAREYQVKLQAALEMLRQKQQEAEELEADIREEKASWKTQIQYDKTNVLADFEQLRDILDWEESNELQNLEKEEEDILKSLTNSETEMVQQTQSLRELISDLEHRLQGSVMELLQGVDGVIKRTENVTLKKPETFPKNQRRVFRAPDLKGMLEVFRELTDVRRYWVDVTVAPNNISCAVISEDKRQVSSPKPQIIYQAPGTLFTFPTLVNFNYCTGILGSQSITSGKHYWEVDVSKKTAWILGVCAGFQPDAMCNIEKNENYQPKYGYWVIGLEEGVKCSAFQDSSFHTPSVPFIVPLSVIICPDRVGVFLDYEACTVSFFNITNHGFLIYKFSHCSFSQPVFPYLNPRKCGVPMTLCSPSS [human TRIM5α, 330-340 = QAPGTLFTFPTLV]” reads 11 ± 0.15; that for “MASGILVNVKEEVTCPICLELLTQPLSLDCGHSFCQACLTANHKKSMLDKGESSCPVCRISYQPENIRPNRHVANIVEKLREVKLSPEGQKVDHCARHGEKLLLFCQEDGKVICWLCERSQEHRGHHTFLTEEVAREYQVKLQAALEMLRQKQQEAEELEADIREEKASWKTQIQYDKTNVLADFEQLRDILDWEESNELQNLEKEEEDILKSLTNSETEMVQQTQSLRELISDLEHRLQGSVMELLQGVDGVIKRTENVTLKKPETFPKNQRRVFRAPDLKGMLEVFRELTDVRRYWVDVTVAPNNISCAVISEDKRQVSSPKPQIIYQAPGTLFTFQSFTNFNYCTGILGSQSITSGKHYWEVDVSKKTAWILGVCAGFQPDAMCNIEKNENYQPKYGYWVIGLEEGVKCSAFQDSSFHTPSVPFIVPLSVIICPDRVGVFLDYEACTVSFFNITNHGFLIYKFSHCSFSQPVFPYLNPRKCGVPMTLCSPSS [human TRIM5α, 330-340 = QAPGTLFTFQSFT]”, 3.67 ± 0.0081; that for “MASGILVNVKEEVTCPICLELLTQPLSLDCGHSFCQACLTANHKKSMLDKGESSCPVCRISYQPENIRPNRHVANIVEKLREVKLSPEGQKVDHCARHGEKLLLFCQEDGKVICWLCERSQEHRGHHTFLTEEVAREYQVKLQAALEMLRQKQQEAEELEADIREEKASWKTQIQYDKTNVLADFEQLRDILDWEESNELQNLEKEEEDILKSLTNSETEMVQQTQSLRELISDLEHRLQGSVMELLQGVDGVIKRTENVTLKKPETFPKNQRRVFRAPDLKGMLEVFRELTDVRRYWVDVTVAPNNISCAVISEDKRQVSSPKPQIIYQAPGTLFTFQSFVNFNYCTGILGSQSITSGKHYWEVDVSKKTAWILGVCAGFQPDAMCNIEKNENYQPKYGYWVIGLEEGVKCSAFQDSSFHTPSVPFIVPLSVIICPDRVGVFLDYEACTVSFFNITNHGFLIYKFSHCSFSQPVFPYLNPRKCGVPMTLCSPSS [human TRIM5α, 330-340 = QAPGTLFTFQSFV]”, 0.489 ± 0.34. Regarding “MASGILVNVKEEVTCPICLELLTQPLSLDCGHSFCQACLTANHKKSMLDKGESSCPVCRISYQPENIRPNRHVANIVEKLREVKLSPEGQKVDHCARHGEKLLLFCQEDGKVICWLCERSQEHRGHHTFLTEEVAREYQVKLQAALEMLRQKQQEAEELEADIREEKASWKTQIQYDKTNVLADFEQLRDILDWEESNELQNLEKEEEDILKSLTNSETEMVQQTQSLRELISDLEHRLQGSVMELLQGVDGVIKRTENVTLKKPETFPKNQRRVFRAPDLKGMLEVFRELTDVRRYWVDVTVAPNNISCAVISEDKRQVSSPKPQIIYQAPGTLFTFQSLTNFNYCTGILGSQSITSGKHYWEVDVSKKTAWILGVCAGFQPDAMCNIEKNENYQPKYGYWVIGLEEGVKCSAFQDSSFHTPSVPFIVPLSVIICPDRVGVFLDYEACTVSFFNITNHGFLIYKFSHCSFSQPVFPYLNPRKCGVPMTLCSPSS [human TRIM5α, 330-340 = QAPGTLFTFQSLT]”, the enrichment worked out at 0.905 ± 0.16. The result for “MASGILVNVKEEVTCPICLELLTQPLSLDCGHSFCQACLTANHKKSMLDKGESSCPVCRISYQPENIRPNRHVANIVEKLREVKLSPEGQKVDHCARHGEKLLLFCQEDGKVICWLCERSQEHRGHHTFLTEEVAREYQVKLQAALEMLRQKQQEAEELEADIREEKASWKTQIQYDKTNVLADFEQLRDILDWEESNELQNLEKEEEDILKSLTNSETEMVQQTQSLRELISDLEHRLQGSVMELLQGVDGVIKRTENVTLKKPETFPKNQRRVFRAPDLKGMLEVFRELTDVRRYWVDVTVAPNNISCAVISEDKRQVSSPKPQIIYQAPGTLFTFQSLVNFNYCTGILGSQSITSGKHYWEVDVSKKTAWILGVCAGFQPDAMCNIEKNENYQPKYGYWVIGLEEGVKCSAFQDSSFHTPSVPFIVPLSVIICPDRVGVFLDYEACTVSFFNITNHGFLIYKFSHCSFSQPVFPYLNPRKCGVPMTLCSPSS [human TRIM5α, 330-340 = QAPGTLFTFQSLV]” reads 0.0934 ± 0.021; that for “MASGILVNVKEEVTCPICLELLTQPLSLDCGHSFCQACLTANHKKSMLDKGESSCPVCRISYQPENIRPNRHVANIVEKLREVKLSPEGQKVDHCARHGEKLLLFCQEDGKVICWLCERSQEHRGHHTFLTEEVAREYQVKLQAALEMLRQKQQEAEELEADIREEKASWKTQIQYDKTNVLADFEQLRDILDWEESNELQNLEKEEEDILKSLTNSETEMVQQTQSLRELISDLEHRLQGSVMELLQGVDGVIKRTENVTLKKPETFPKNQRRVFRAPDLKGMLEVFRELTDVRRYWVDVTVAPNNISCAVISEDKRQVSSPKPQIIYQAPGTLFTFQTFTNFNYCTGILGSQSITSGKHYWEVDVSKKTAWILGVCAGFQPDAMCNIEKNENYQPKYGYWVIGLEEGVKCSAFQDSSFHTPSVPFIVPLSVIICPDRVGVFLDYEACTVSFFNITNHGFLIYKFSHCSFSQPVFPYLNPRKCGVPMTLCSPSS [human TRIM5α, 330-340 = QAPGTLFTFQTFT]”, 0.205 ± 0.057.
